# From the supplement of paper PMC12217912
# Some of the results follow. Sequences were assembled here from the parent chain. Inactive controls read about 0.05.
# B1: TEV protease; numbered along this chain (parent)
# chain: MGESLFKGPRDYNPISSSICHLTNESDGHTTSLYGIGFGPFIITNKHLFRRNNGTLVVQSLHGVFKVKDTTTLQQHLVDGRDMIIIRMPKDFPPFPQKLKFREPQREERICLVTTNFQTKSMSSMVSDTSCTFPSGDGIFWKHWIQTKDGQCGSPLVSTRDGFIVGIHSASNFTNTNNYFTSVPKNFMELLTNQEAQQWVSGWRLNADSVLWGGHKVFMVKPEEPFQPVKEATQL
# Variants of: B1
# Experiment: raw area under fraction-flipped curve 0-4 h after induction (AUC4h, not background-subtracted), DNA-recorder readout of cleavage of the substrate (dimensionless); higher = more cleavage of the substrate by the protease variant
# Conditions: temperature: 34 °C; time window: 0-4 h after rhamnose induction
# Description: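 In vivo DNA recorder in E. coli TOP10(DE3) ΔrhaA at 34 °C. Each TEVp single-site mutant (parent TEVp 0) is paired with a single-site variant of the 7-mer TEVs (canonical ENLYFQ|S). The substrate sits between flexible linkers in a Bxb1-sfGFP-TEVs-SsrA fusion, so cleavage stabilises Bxb1 and speeds flipping of a recombination array, read by NGS. The value is the raw area under the fraction-flipped curve over 0-4 h after rhamnose induction (AUC4h), with ≥20 reads per time point. It is not background-subtracted; inactive controls average about 0.047.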
# 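Also: Bxb1 expression induced with 0.2% (w/v) L-rhamnose at OD600 near 0.5, cultures sampled hourly, flipped fraction per protease–substrate barcode pair counted by paired-end Illumina sequencing.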
Variant,area with substrate CNLYFQS,area with substrate HNLYFQS,area with substrate LNLYFQS,area with substrate WNLYFQS,area with substrate YNLYFQS,area with substrate KNLYFQS,area with substrate NNLYFQS,area with substrate SNLYFQS,area with substrate TNLYFQS,area with substrate INLYFQS
G35Q,0.0632,0.0144,0.0488,0.0437,0.0373,,,,,
Q59A,0.0647,0.0376,0.0627,0.0503,,0.0527,0.0728,0.0765,0.0671,
Q59T,0.0747,0.0682,,0.0533,0.0717,,,0.0555,0.0403,0.0714
T115P,0.0772,0.0568,0.0658,0.0337,0.0439,,,,0.112,0.0643
R106L,0.103,0.0579,0.118,0.0646,0.0552,,,,0.0841,
T70V,0.0559,0.0521,0.0573,0.0686,0.0633,,,0.0701,0.063,
T70Y,0.0552,0.0504,0.0638,,0.0662,0.005,0.0657,,,
I86A,0.0211,,,0.0647,,,,0.0701,0.0582,0.0625
I86G,0.0453,,0.0356,0.0363,0.0411,,0.034,,,
D82I,0.0529,0.0353,,0.055,,0.044,0.0358,,0.0511,0.0578
R109F,0.0872,0.0704,0.0675,,,,0.0966,0.069,0.0485,0.0624
T114D,0.0693,0.0708,0.0569,,,,,0.0705,0.047,0.0542
P9H,0.0673,,,,0.0528,,,,0.0643,0.0618
G28V,0.047,0.0632,,0.0542,,0.051,0.0731,0.0129,0.0686,0.0592
I84Q,0.055,0.0514,0.0542,0.0432,,,0.0559,0.0735,0.0646,0.0555
I84P,0.0454,,,,,,,,0.0504,
T71Y,0.072,0.0566,0.0547,0.0514,,0.0461,0.0602,,0.075,
T71M,0.0767,0.0596,,0.0652,,0.0149,,,,0.0702
T71I,0.0743,0.0331,,,0.0556,,,,,
T71D,0.0463,0.0146,0.0395,0.0537,,0.0606,,,0.071,0.055
T71H,0.0775,0.0602,,0.0492,,0.055,,0.0557,0.0467,
M88K,0.067,,,0.0456,,,,,,

Variant,area with substrate CNLYFQS,area with substrate HNLYFQS,area with substrate LNLYFQS,area with substrate WNLYFQS,area with substrate YNLYFQS,area with substrate KNLYFQS,area with substrate NNLYFQS,area with substrate SNLYFQS,area with substrate TNLYFQS,area with substrate INLYFQS
Y34K,0.0741,,0.0714,,0.0529,,0.0592,0.0473,,
Y34E,0.0772,0.0506,,0.053,,0.0574,0.0583,,0.0672,
Y34W,0.0723,,,0.0284,,,,,0.0749,
Y34N,0.0692,,,0.0518,,,,0.0698,,
V67H,0.0992,0.0638,,0.0519,,0.0675,,0.0527,0.0572,
R51G,0.0647,0.0751,,,0.0564,,0.0611,,0.052,
F95T,0.0234,,,,,,0.039,,,
N116M,0.0642,,,0.0761,,,,,0.0724,
N116R,0.102,,,0.0773,,0.0534,,,0.0567,0.0447
L77M,0.0707,0.0508,0.0567,0.057,0.038,,,0.0603,0.0536,0.0611
C111R,0.048,0.0747,,0.0676,0.0477,0.0904,0.0791,,0.0718,
F6R,0.0629,0.0566,,0.0566,,,0.059,0.0589,0.116,
F6K,0.0681,0.0815,,,0.0628,,,,,0.0548
F92R,0.0576,,,,,,,,,
Q97F,0.0582,,,0.0717,0.0547,,,0.106,0.0567,
Q97K,0.0561,,,,,0.0645,,0.0497,,
D91L,0.0749,0.0719,0.0658,0.0662,0.0577,,,0.0711,0.0616,
L5Y,0.0908,,0.0843,0.048,,,0.0689,,,0.0709
T30V,0.0663,0.0698,0.0559,0.0615,0.0751,,,,,
R50F,0.0789,0.0822,0.0764,0.0711,0.0649,0.0694,,0.0845,0.079,0.0712
G63K,0.0607,,0.0647,,,,,,0.0642,
G63C,0.0517,0.0618,,0.0601,0.0606,0.062,,0.0617,0.0649,0.083

# Same assay, conditions: temperature: 34 °C; time window: 0-4 h after rhamnose induction
Variant,area with substrate MNLYFQS,area with substrate VNLYFQS,area with substrate FNLYFQS,area with substrate GNLYFQS,area with substrate PNLYFQS,area with substrate RNLYFQS,area with substrate QNLYFQS
Q59T,0.073,0.0686,,,,,
R106L,,,0.0739,,,,
T70V,0.0504,,0.0669,0.0414,0.0711,0.0607,
T70Y,0.0551,0.0608,0.0587,0.0797,0.0532,,
I86A,0.0696,,0.0496,,,,0.0526
I86G,0.0485,,,,,,
D82I,,,0.0599,,,,
R109F,,0.0658,,,,,
T114D,,,0.0513,,0.0503,,
P9H,,,,,0.0682,0.0559,
G28V,0.0612,,0.054,0.057,0.0573,,
I84Q,0.0656,,,,0.0639,,
T71Y,,,0.0697,,0.0558,,
T71M,,,,0.0689,0.0763,,
T71I,,,0.0582,0.067,0.0575,0.0507,
T71D,,,,,0.0625,,
T71H,0.0687,,,0.0498,0.0643,,0.0627
Y34K,,,,,0.066,,

Variant,area with substrate MNLYFQS,area with substrate VNLYFQS,area with substrate FNLYFQS,area with substrate GNLYFQS,area with substrate PNLYFQS,area with substrate RNLYFQS,area with substrate QNLYFQS
Y34W,,0.0632,,0.0571,,,0.049
Y34N,0.0681,,,,0.0733,0.0704,
V67H,0.055,0.0771,0.0557,,,0.0493,0.0696
R51G,,,,,,0.0517,
F95T,,,,,0.0624,,
N116M,0.0671,,,,0.0676,,
N116R,,,0.0941,0.075,,,
L77M,,0.0599,,,0.0394,,
C111R,,0.1,,,0.0703,,
F6K,0.0696,,0.0335,0.0561,,,
Q97F,,,0.0706,,0.0847,,
Q97K,,0.0522,,,,,
D91L,0.0717,,,0.0615,0.0679,,0.114
L5Y,0.0811,,,,0.084,,
T30V,,0.0656,,,0.0622,,
R50F,0.081,,0.083,,0.0953,,0.0898
G63K,0.0292,0.0502,,,,,
G63C,0.065,,0.0688,,0.0733,,
